Assay results published in the supplement of paper PMC3334620.
In all, about 33,000 sequences were measured (“E-score (-0.5 to 0.5)”: median about -0.013, highest 2% from about 0.3 on). Some of the results follow.

What follows are sequences tested against T1, Msn1 (UniProt P22148) (assay: PBM E-score (8-mer binding enrichment) (E-score (-0.5 to 0.5)); higher = stronger / more preferred TF binding; most listed sequences are background and not binding sites). Conditions: protein concentration: 200 nM; construct: GST-full length.
T1 sequence: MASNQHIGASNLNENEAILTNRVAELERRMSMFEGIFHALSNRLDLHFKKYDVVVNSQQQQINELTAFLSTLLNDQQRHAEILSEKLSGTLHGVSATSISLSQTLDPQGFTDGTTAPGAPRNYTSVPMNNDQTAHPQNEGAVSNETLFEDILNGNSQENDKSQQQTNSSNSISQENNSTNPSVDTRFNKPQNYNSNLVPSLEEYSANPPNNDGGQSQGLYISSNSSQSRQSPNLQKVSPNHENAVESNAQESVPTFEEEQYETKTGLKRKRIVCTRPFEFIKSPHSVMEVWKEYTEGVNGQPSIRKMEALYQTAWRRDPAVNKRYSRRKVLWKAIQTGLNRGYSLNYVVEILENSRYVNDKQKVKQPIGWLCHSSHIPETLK
Method in brief: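 PURExpress in vitro transcription/translation supplied GST-tagged yeast transcription factors, either full-length or DNA-binding domain. Applied at about 100-200 nM to universal all-10-mer Agilent arrays double-stranded by primer extension, the bound protein was detected with fluorescent anti-GST. E-scores, modified Wilcoxon-Mann-Whitney statistics, were given by the Universal PBM Analysis Suite to ungapped eight-base words pooled with their reverse complements after masliner normalisation.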

| Sequence | PBM E-score |
| --- | --- |
| TAAAGGCA | -0.00043 |
| ACAAAAGT | 0.295 |
| AAGGGACG | 0.111 |
| GATGGGGA | -0.143 |
| GAAGTAGC | -0.206 |
| AACCACAT | 0.083 |
| GTGGCCAA | -0.0704 |
| GGCCTTTA | -0.0897 |
| CCTTAAGG | -0.0168 |
| CGCATACG | -0.0304 |
| ATCAGTCC | -0.197 |
| GGGTTGAA | 0.0117 |
| ACCTGCGT | -0.149 |
| CGCTAGGA | -0.0538 |
| GACAACCC | 0.0834 |
| GACTTTCA | 0.271 |
| AGCGGATG | 0.00745 |
| ATACACGG | 0.0626 |
| TGATAGCA | -0.00624 |
| CTGTCCGC | 0.114 |
| AAATGATA | 0.211 |
| ATGTAAAT | 0.0942 |
| AGGGGCCC | -0.298 |
| GCACAAGC | -0.0494 |
| CTAATTAG | 0.25 |

| Sequence | PBM E-score |
| --- | --- |
| CCGAAGGA | -0.0508 |
| AGAGCTAC | -0.119 |
| ATTCAGAA | 0.0541 |
| CGGCACTC | -0.138 |
| CACGATCC | 0.0298 |
| ACTATTCA | 0.108 |
| CGGTGCAC | -0.156 |
| CTATAGCC | -0.228 |
| AAGCGCTT | 0.312 |
| CCGTATAC | -0.0814 |
| CCGAGACA | 0.319 |
| CATGGCCC | -0.249 |
| ATCCGGTG | -0.0397 |
| TCCGTTAA | 0.204 |
| TAGGTTAA | 0.0373 |
| CAACCGCC | -0.177 |
| CTCCAGAC | 0.0625 |
| CGGTTCCC | -0.0131 |
| CTTATGTC | 0.374 |
| CAAGCGGC | 0.0281 |
| GACGCGGC | 0.132 |
| ACTTGACA | -0.0312 |
| CTCTTTAC | -0.199 |
| CGACGTTA | 0.181 |
| ACTACGGC | -0.223 |

| Sequence | PBM E-score |
| --- | --- |
| TCACTTAA | 0.134 |
| AAGCCCCT | -0.285 |
| ATATTGAC | -0.0639 |
| GTAATACA | 0.0721 |
| ACCATTAG | 0.02 |
| GTTGTCAA | 0.0641 |
| GCACATGA | -0.0829 |
| CCCGGTCA | -0.0171 |
| GGAATACC | -0.0823 |
| AGAAAACC | 0.0822 |
| GCTATTAA | 0.0937 |
| ATTCTGTC | 0.127 |
| ACATAGCT | -0.0112 |
| GTCTCTGA | 0.0973 |
| CGCTTTAA | -0.0635 |
| AATGTCAC | 0.381 |
| ACTCGAAA | -0.036 |
| ACGTCCGC | 0.14 |
| TACATCTA | 0.105 |
| GAGAGACC | -0.125 |
| ACAACCGT | -0.0303 |
| TTGACCAA | 0.079 |
| ACATGGCC | 0.136 |
| ACAACCTA | 0.0651 |
| CGTAACAA | 0.0345 |

| Sequence | PBM E-score |
| --- | --- |
| CGAAGGAG | -0.207 |
| ACGAGTCG | -0.0461 |
| ATAAACTA | 0.0785 |
| TCTCCTCA | -0.078 |
| AAGTAAGC | 0.149 |
| CCGAGGTC | 0.0121 |
| ATCCTTAA | -0.126 |
| GGAGTCTA | -0.254 |
| ATATCTCA | 0.253 |
| GAGGCTGA | -0.175 |
| GGCGAGTA | -0.0351 |
| GTGACTAA | 0.133 |
| GAGTCCGA | 0.243 |
| GCCTAAGA | 0.0504 |
| ACCCACGA | 0.052 |
| TACGAGTA | 0.118 |
| CTCCAGCC | -0.227 |
| CTCGTCCC | 0.228 |
| ATTATTTG | 0.0904 |
| ACCTTTCG | -0.0277 |
| GATATAAC | -0.0351 |
| GTGGGGGA | -0.141 |
| CTTCCCAA | 0.107 |
| CGATTGGC | 0.046 |
| ATCACCCG | -0.17 |

| Sequence | PBM E-score |
| --- | --- |
| GTTCTGGA | 0.133 |
| ACAGGTAA | 0.027 |
| AATGGATG | -0.0531 |
| AATGTTTC | 0.105 |
| ACACAACA | 0.0342 |
| AAGAGTGC | -0.0251 |
| ACAAGTAT | 0.138 |
| AATCGCCA | -0.24 |
| AGTGGTAT | 0.034 |
| TCCCGAAA | 0.0124 |
| TCAAGGAA | -0.0495 |
| AGACTTAC | -0.0717 |
| ATGCTCCG | -0.0598 |
| ACCACCCA | 0.0438 |
| AATTTGGT | 0.173 |
| GTACGCCA | -0.123 |
| ACTAAACG | 0.0401 |
| CTGACTAC | -0.104 |
| AACGACGA | 0.108 |
| GAGAGCTA | -0.0637 |
| GAAGATGA | -0.158 |
| ACCGTACA | 0.00044 |
| CCCATGAG | -0.124 |
| ATGAATGA | 0.0538 |
| GGAAAGCC | 0.019 |

| Sequence | PBM E-score |
| --- | --- |
| ATTGGCCA | -0.0723 |
| TGGTGCAA | -0.249 |
| GTCCCTTA | 0.28 |
| GACCTCCA | -0.203 |
| TCCGGCGA | 0.173 |
| AACGCGGC | -0.0726 |
| CCGGACAA | 0.452 |
| GGAGTATA | -0.0705 |
| CGGTCTTC | -0.114 |
| GTGATCGA | 0.118 |
| GGGAGGAA | -0.178 |
| TAGCGGCA | -0.0593 |
| AAACCAGC | 0.052 |
| GAAGTGGA | -0.0423 |
| CGATTCCG | -0.0607 |
| AGCTTACA | 0.0561 |
| CTCGTAGA | -0.167 |
| AAACTATC | -0.0577 |
| ACATCATC | -0.0738 |
| CTGGGTGC | -0.345 |
| GGCCAATA | -0.0111 |
| ACCGGCGA | 0.0718 |
| ACTGTGAT | -0.162 |
| CTCTATAA | -0.0269 |
| CATATAGG | -0.0261 |

| Sequence | PBM E-score |
| --- | --- |
| TACTGACA | 0.3 |
| ATAAGCAC | -0.0395 |
| TGCCAACA | 0.0784 |
| AGTTAGTG | 0.114 |
| AAATAGAT | 0.197 |
| TATCGGGA | 0.178 |
| ACTTTTGG | 0.289 |
| AAACCGTG | -0.0562 |
| CCGTTACA | 0.0399 |
| CCTGCAGC | -0.166 |
| GCCGCATA | 0.074 |
| TATCCATA | 0.0627 |
| AGGCCCAA | -0.0893 |
| TTATAGAA | 0.0791 |
| CGCCACAG | -0.173 |
| ATTGAAAG | 0.119 |
| CCGAAATA | 0.249 |
| CCTGTTTC | -0.0725 |
| AGCAGTCA | -0.0636 |
| ACATCCCT | 0.114 |
| TGTAGGAA | 0.0189 |
| AGGTTGAA | 0.0649 |
